# Laboratory results reported in publication PMC13541613.
# The entries are a selection whose mix differs from that of the whole data set. At the low end of the ranking the order means little.
# Target: ZNF721 DBD1 (UniProt Q8TF20-2)
# Experiment: HT-SELEX
# Conditions: 20 mM HEPES pH 7, 140 mM KCl, 5 mM NaCl, 1 mM K2HPO4, 2 mM MgSO4, 100 uM EGTA, ZnSO4, 0.1% Tween20; room temperature, 1 h; high values mean tight binding; double strand, one strand shown
row,Sequence,binding signal (relative 10-mer count)
1,CAGCATGCCC,0.000505
2,AAAAACAGAG,0.000229
3,CCCCACCCCG,0.00784
4,AAAACAGTGT,0.00055
5,AAGCAGTGTC,0.000229
6,CCGCCCCGCC,0.00592
7,ACTGTTTTTC,0.000917
8,CGCTGTTTTC,0.000367
9,CAAAACAGCG,0.000321
10,CAGCATGACC,0.000413
11,AAGAAAACAG,0.000183
12,CAAAGCAGTG,0.000688
13,ACAGTGTCTC,0.000229
14,CGCACCCCCC,0.00463
15,AAAAACAGCA,0.000826
16,CAGAAAACAG,0.000459
17,CGAAAAACAG,0.00078
18,AAAAGCAGTG,0.000596
19,ACAGAGTACC,0.000367

row,Sequence,binding signal (relative 10-mer count)
1,AAACAGGATA,0.000275
2,CAACCACCCC,0.00486
3,AAAACAGCAT,0.000917
4,AAAACAGCAG,0.000596
5,AAAAGCAGCG,0.000917
6,AAACAGCATT,0.000138
7,ACAAAACAGT,0.000505
8,AAACGAACAG,0.000367
9,AAACAGCGTC,0.00078
10,CCTCCCCCTC,0.00807
11,GCCCCCCGCC,0.00477
12,CAGCGTTGCC,0.000229
13,CCACACACCC,0.00321
14,GAAACGCTGC,0.000183
15,AAAACTAGCA,0.000367
16,AAACAGGGTT,0.000138
17,AAACACTGCT,0.000505
18,CACCGCCCCA,0.00404
